Measurements published in the supplement of paper PMC4967469.
By IC50 is meant the dose at which the fit gives 50% viability; a limit (>, <) means that the fit lies beyond the doses tested. The AUC spans the tested range (256-fold, ending at the top dose) of the same fit; values near 1 show little effect. For some of these results: Any top dose called inferred comes from the curve model; the source does not state it.

Key:
Assay in all cases: Viability of human cancer cell lines after 72 h of drug (GDSC screen)
CP724714 = compound: COCC(=O)NC/C=C/c1ccc2ncnc(Nc3ccc(Oc4ccc(C)nc4)c(C)c3)c2c1 [CP724714]; details: top dose 10.24 µM; top dose inferred
Experimental: (§1)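 Human cancer cell lines in 384-well plates, medium with 10% serum, drug for 72 h over a 256-fold dose range (nine 2-fold or five 4-fold steps up to the top dose). Adherent lines were fixed and stained with the nucleic acid dye Syto60, suspension lines read with resazurin; signal relative to control wells, capped at 0 and 100%. One two-parameter sigmoid per drug and line, fitted in a mixed model over all curves with the slope shared within a line.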

STF-62247 = compound: Cc1cccc(Nc2nc(-c3ccncc3)cs2)c1 [STF-62247]; details: top dose 10.24 µM; top dose inferred
Experimental: as §1

Obatoclax mesylate = compound: COC1=CC(c2cc3ccccc3[nH]2)=N/C1=C\c1[nH]c(C)cc1C [Obatoclax mesylate]; details: top dose 16 µM
Experimental: as §1

CX-5461 = compound: Cc1cnc(CNC(=O)c2c(=O)c3ccc(N4CCCN(C)CC4)nc3n3c2sc2ccccc23)cn1 [CX-5461]; details: top dose 10.24 µM; top dose inferred
Experimental: as §1

Row | Cell Line | AUC (CP724714) | IC50 (CP724714) | AUC (STF-62247) | IC50 (STF-62247) | AUC (Obatoclax mesylate) | IC50 (Obatoclax mesylate) | AUC (CX-5461) | IC50 (CX-5461)
1 | RMG-I (ovary, adherent) | 0.917 | > 10.2 µM | 0.967 | > 10.2 µM | 0.492 | 0.95 µM | 0.932 | > 10.2 µM
2 | RO82-W-1 (thyroid, adherent) | 0.982 | > 10.2 µM | 0.977 | > 10.2 µM | 0.626 | 2.46 µM | 0.981 | > 10.2 µM
3 | RPMI-2650 (head and neck, adherent) | 0.978 | > 10.2 µM | 0.974 | > 10.2 µM | 0.081 | < 0.0625 µM | 0.792 | 5.06 µM
4 | RPMI-7951 (melanoma, adherent) | 0.956 | > 10.2 µM | 0.958 | > 10.2 µM | 0.343 | 0.373 µM | 0.684 | 2.06 µM
5 | RT4 (bladder, adherent) | 0.953 | > 10.2 µM | 0.987 | > 10.2 µM | 0.554 | 1.42 µM | 0.881 | > 10.2 µM
6 | RT-112 (bladder, adherent) | 0.978 | > 10.2 µM | 0.985 | > 10.2 µM | 0.242 | 0.168 µM | 0.944 | > 10.2 µM
7 | RVH-421 (melanoma, adherent) | 0.922 | > 10.2 µM | 0.957 | > 10.2 µM | 0.218 | 0.106 µM | 0.894 | > 10.2 µM
8 | SAS (head and neck, adherent) | 0.953 | > 10.2 µM | 0.969 | > 10.2 µM | 0.146 | 0.0672 µM | 0.77 | 4.35 µM
9 | SAT (head and neck, adherent) | 0.906 | > 10.2 µM | 0.947 | > 10.2 µM | 0.747 | 7.74 µM | 0.938 | > 10.2 µM
10 | SBC-3 (small cell lung carcinoma, adherent) | 0.974 | > 10.2 µM | 0.985 | > 10.2 µM | 0.141 | 0.0882 µM | 0.543 | 0.831 µM
11 | SBC-5 (small cell lung carcinoma, adherent) | 0.984 | > 10.2 µM | 0.992 | > 10.2 µM | 0.251 | 0.229 µM | 0.993 | > 10.2 µM
12 | SCC-4 (head and neck, adherent) | 0.979 | > 10.2 µM | 0.983 | > 10.2 µM | 0.586 | 1.8 µM | 0.967 | > 10.2 µM
13 | SCC-9 (head and neck, adherent) | 0.951 | > 10.2 µM | 0.959 | > 10.2 µM | 0.545 | 1.37 µM | 0.732 | 3.59 µM
14 | SCC-25 (head and neck, adherent) | 0.942 | > 10.2 µM | 0.984 | > 10.2 µM | 0.144 | 0.0641 µM | 0.59 | 1.17 µM
15 | SF295 (glioma, adherent) | 0.978 | > 10.2 µM | 0.985 | > 10.2 µM | 0.377 | 0.445 µM | 0.869 | > 10.2 µM
16 | SISO (cervix, adherent) | 0.985 | > 10.2 µM | 0.985 | > 10.2 µM | 0.59 | 1.74 µM | 0.935 | > 10.2 µM

Row | Cell Line | AUC (CP724714) | IC50 (CP724714) | AUC (STF-62247) | IC50 (STF-62247) | AUC (Obatoclax mesylate) | IC50 (Obatoclax mesylate) | AUC (CX-5461) | IC50 (CX-5461)
17 | SJRH30 (rhabdomyosarcoma, adherent) | 0.981 | > 10.2 µM | 0.979 | > 10.2 µM | 0.339 | 0.351 µM | 0.986 | > 10.2 µM
18 | SK-CO-1 (large intestine, adherent) | 0.982 | > 10.2 µM | 0.986 | > 10.2 µM | 0.657 | 2.64 µM | 0.933 | > 10.2 µM
19 | SK-HEP-1 (liver, adherent) | 0.989 | > 10.2 µM | 0.983 | > 10.2 µM | 0.269 | 0.231 µM | 0.965 | > 10.2 µM
20 | SK-LU-1 (lung adenocarcinoma, adherent) | 0.971 | > 10.2 µM | 0.976 | > 10.2 µM | 0.244 | 0.146 µM | 0.849 | > 10.2 µM
21 | SK-MEL-3 (melanoma, adherent) | 0.98 | > 10.2 µM | 0.967 | > 10.2 µM | 0.088 | < 0.0625 µM | 0.984 | > 10.2 µM
22 | SK-MEL-24 (melanoma, adherent) | 0.983 | > 10.2 µM | 0.978 | > 10.2 µM | 0.485 | 0.902 µM | 0.833 | 8.68 µM
23 | SK-MEL-28 (melanoma, adherent) | 0.988 | > 10.2 µM | 0.982 | > 10.2 µM | 0.527 | 1.18 µM | 0.986 | > 10.2 µM
24 | SK-MEL-30 (melanoma, adherent) | 0.985 | > 10.2 µM | 0.982 | > 10.2 µM | 0.042 | < 0.0625 µM | 0.911 | > 10.2 µM
25 | SK-MES-1 (lung squamous cell carcinoma, adherent) | 0.94 | > 10.2 µM | 0.972 | > 10.2 µM | 0.211 |  | 0.953 | > 10.2 µM
26 | SK-N-AS (neuroblastoma, adherent) | 0.981 | > 10.2 µM | 0.977 | > 10.2 µM | 0.515 | 1.1 µM | 0.963 | > 10.2 µM
27 | SK-N-SH (neuroblastoma, adherent) | 0.985 | > 10.2 µM | 0.978 | > 10.2 µM | 0.167 | 0.0978 µM | 0.687 | 2.13 µM
28 | SK-OV-3 (ovary, adherent) | 0.956 | > 10.2 µM | 0.922 | > 10.2 µM | 0.403 | 0.506 µM | 0.897 | > 10.2 µM
29 | SKG-IIIa (cervix, adherent) | 0.983 | > 10.2 µM | 0.983 | > 10.2 µM | 0.734 | 5.97 µM | 0.983 | > 10.2 µM
30 | SKN (uterus, adherent) | 0.927 | > 10.2 µM | 0.971 | > 10.2 µM | 0.351 | 0.353 µM | 0.845 | 9.84 µM
31 | SKN-3 (head and neck, adherent) | 0.978 | > 10.2 µM | 0.982 | > 10.2 µM | 0.423 | 0.592 µM | 0.966 | > 10.2 µM
